Laboratory results reported in patent US20240384006A1 (Amgen, published 2024).
Numbering of substitutions follows the chain as printed. Names may count otherwise. Each block holds one binder with its values, some of them ahead of it.

How the values were obtained:
[1] = target: T1, cyno CD22 (cyno); assay: flow cytometry on CHO cells expressing cyno CD22, one site-specific binding fit, mean of three
T1 construct: whole, on cells; also called cy CD22
Procedure: (§1) Cell-based affinity of CD20 CD22 dual targeting antigen-binding molecules was determined by nonlinear regression (one site—specific binding) analysis. CHO cells expressing human CD20, cyno CD20, human CD22 or cyno CD22 were incubated with decreasing concentrations of CD20 CD22 dual targeting antigen-binding molecules (up to 800 nM, step 1:2 or 1:3, 11 steps) for 16 h at 4° C. Bound CD20 CD22 dual targeting antigen-binding molecules were detected with Alexa Fluor 488-conjugated AffiniPure Fab Fragment Goat Anti-Human IgG (H+L). Fixed cells were stained with DRAQ5, Far-Red Fluorescent Live-Cell Permeant DNA Dye and signals were detected by fluorescence cytometry. Respective equilibrium dissociation constant (Kd) values were calculated with the one site specific binding evaluation tool of the GraphPad Prism software. Mean Kd values and affinity gaps were calculated with Microsoft Excel.
(§2) Cell-based affinities of CD20 CD22 dual targeting antigen-binding molecules on target-transfected CHO cells were determined by nonlinear regression (one site—specific binding) analysis. Mean Kd values were calculated from three independent measurements. Affinity gaps were determined by dividing the cyno Kd by the human Kd.

[2] = target: T2, human CD22 (human, UniProt P20273 20-847); assay: flow cytometry on CHO cells expressing human CD22, one site-specific binding fit, mean of three
T2 construct: whole, on cells; also called hu CD22
T2 sequence (looked up): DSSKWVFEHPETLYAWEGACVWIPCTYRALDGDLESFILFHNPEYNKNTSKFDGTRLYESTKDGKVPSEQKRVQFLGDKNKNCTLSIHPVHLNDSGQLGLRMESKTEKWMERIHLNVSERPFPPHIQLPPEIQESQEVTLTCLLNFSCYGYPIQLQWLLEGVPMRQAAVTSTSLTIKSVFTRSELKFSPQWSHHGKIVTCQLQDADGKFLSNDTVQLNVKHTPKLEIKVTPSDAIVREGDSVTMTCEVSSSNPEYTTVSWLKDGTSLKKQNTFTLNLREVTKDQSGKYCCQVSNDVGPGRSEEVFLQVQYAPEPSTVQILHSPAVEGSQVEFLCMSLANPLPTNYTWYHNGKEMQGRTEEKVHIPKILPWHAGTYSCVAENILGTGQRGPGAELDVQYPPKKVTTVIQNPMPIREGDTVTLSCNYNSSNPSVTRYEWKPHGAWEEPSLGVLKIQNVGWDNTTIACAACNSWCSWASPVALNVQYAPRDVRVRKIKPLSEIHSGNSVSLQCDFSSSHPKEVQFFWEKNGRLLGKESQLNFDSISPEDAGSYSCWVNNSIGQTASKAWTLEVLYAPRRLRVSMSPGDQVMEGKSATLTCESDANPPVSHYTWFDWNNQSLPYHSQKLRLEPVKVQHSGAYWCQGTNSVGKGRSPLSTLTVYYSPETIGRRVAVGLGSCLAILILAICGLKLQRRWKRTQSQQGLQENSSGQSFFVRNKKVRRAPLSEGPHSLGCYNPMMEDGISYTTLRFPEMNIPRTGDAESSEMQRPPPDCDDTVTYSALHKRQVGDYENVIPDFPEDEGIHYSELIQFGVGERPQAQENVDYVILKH
Procedure: as §1, §2

[3] = target: T3, cyno CD20 (cyno, UniProt M4ZHZ6 1-297); assay: cyno Kd divided by human Kd, cell-based affinity on CHO cells
T3 construct: whole, on cells; also called cy CD20
T3 sequence: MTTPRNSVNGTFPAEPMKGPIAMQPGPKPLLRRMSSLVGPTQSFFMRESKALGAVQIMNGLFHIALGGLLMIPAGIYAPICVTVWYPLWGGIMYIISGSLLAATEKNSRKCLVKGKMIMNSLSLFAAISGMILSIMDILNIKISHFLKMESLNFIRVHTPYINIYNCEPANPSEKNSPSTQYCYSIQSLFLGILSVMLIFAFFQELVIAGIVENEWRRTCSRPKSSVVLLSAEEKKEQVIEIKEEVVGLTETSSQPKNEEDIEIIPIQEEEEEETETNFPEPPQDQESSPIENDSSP
Procedure: as §1, §2

[4] = target: T1, cyno CD22; assay: as above
Procedure: as §1, §2

[5] = target: T4, human CD20 (human, UniProt P11836 1-297); assay: flow cytometry on CHO cells expressing human CD20, one site-specific binding fit, mean of three
T4 construct: whole, on cells; also called hu CD20; B-lymphocyte antigen CD20
T4 sequence (looked up): T3 sequence with P25S, L31F, A51T, V157A, R217K, S226N, V227I, V239T
Procedure: as §1, §2

[6] = target: T4, human CD20; assay: cell-based or functional assay
[7] = target: T2, human CD22; assay: cell-based or functional assay
[8] = target: T3, cyno CD20; assay: flow cytometry on CHO cells expressing cyno CD20, one site-specific binding fit, mean of three
Procedure: as §1, §2

Kd [1]: 2.96 nM | Kd [2]: 0.36 nM | Affinity gap Kdcy/Kdhu CD20 [3]: 0.94 | Affinity gap Kdcy/Kdhu CD22 [4]: 8.22 | Kd [5]: 1.39 nM | Kd [8]: 1.3 nM
B1: CD20 82-A3 CC × CD22 53-D6 CC × I2E × scFc (O3S) (bispecific antibody)
chain: EVQLVESGGGLVQPDRSLRLSCAASGFTFRDYAMHWVRQAPGKCLEWVSGIAWNSDSIGYADSVKGRFTISRDNAKNSLFLQMHSLRPEDTALYFCAKDTLYGSGSPRAFDIWGQGTMVTVSSGGGGSGGGGSGGGGSEIVLTQSPATLSVSPGERATLSCRASQSVNNNLAWYQQKPGQAPRLLIYGASTRATGIPARFSGSGSGTEFTLTISRLEPEDFAVYYCQQSNNWPITFGCGTRLEIKSGGGGSQVQLVQSGAEVKKPGASVKVSCKASGYSFTSYGITWVRQAPGQCLEWMGWISAYNGNTIYAQKLQGRVTMTTDTSTSTAYMELRSLRSDDTAVYYCVRDSNHEDFWGQGTLVTVSSGGGGSGGGGSGGGGSEIVLTQSPATLSVSPGERATLSCRASQSVSSNLAWYQQKPGQAPRLLIYGASTRATGIPARFSGSGSGTEFTLTISSLQSEDFAVYYCQQYHTWPPVTFGCGTKVEIKSGGGGSEVQLVESGGGLVQPGGSLKLSCAASGFTFNKYAINWVRQAPGKGLEWVARIRSKYNNYATYYADAVKDRFTISRDDSKNTVYLQMNNLKTEDTAVYYCARAGNFGSSYISYWAYWGQGTLVTVSSGGGGSGGGGSGGGGSQTVVTQEPSLTVSPGGTVTIT[in this place about 80 residues]FGSGTKLTVLGGGG[in this place human IgG1 Fc with R292C N297G V302C (EU numbers)]GGGGSGGGGSGGGGSGGGGSGGGGSGGGGS[in this place human IgG1 Fc with R292C N297G V302C (EU numbers)]
notes: Single chain: anti-CD20 scFv, anti-CD22 scFv, anti-CD3 scFv (I2E), scFc
EC50, 48-hour FACS based cytotoxicity assay, Oci-Ly 1 CD22 k.o. #A1 [6]: 0.00027 nM | EC50, 48-hour FACS based cytotoxicity assay, Oci-Ly 1 CD20 k.o. #A5 [7]: 0.00679 nM

Kd [1]: 3.39 nM | Kd [2]: 0.33 nM | Affinity gap Kdcy/Kdhu CD20 [3]: 1.49 | Affinity gap Kdcy/Kdhu CD22 [4]: 10.3 | Kd [5]: 1.4 nM | Kd [8]: 2.08 nM
B2: CD20 82-A3 CC × CD22 43-F7 CC × I2E × scFc (Z7Q) (bispecific antibody)
chain: EVQLVESGGGLVQPDRSLRLSCAASGFTFRDYAMHWVRQAPGKCLEWVSGIAWNSDSIGYADSVKGRFTISRDNAKNSLFLQMHSLRPEDTALYFCAKDTLYGSGSPRAFDIWGQGTMVTVSSGGGGSGGGGSGGGGSEIVLTQSPATLSVSPGERATLSCRASQSVNNNLAWYQQKPGQAPRLLIYGASTRATGIPARFSGSGSGTEFTLTISRLEPEDFAVYYCQQSNNWPITFGCGTRLEIKSGGGGSQVQLVQSGGEVKKPGASVKVSCKASGYTFTSYGISWVRQAPGQCLEWMGWISPQTGNAIYAQKLQGRVTMTRDTSTSTAYMELRSLRSDDTAVYYCARDPDYYGSGSYSDYWGQGTLVTVSSGGGGSGGGGSGGGGSEIVLTQSPATLSVSPGERATLSCRASQSVSSNLAWYQQKPGQAPRLLIYGASSRATGIPARFSGSGSGTEFTLTISSLQSEDFAVYYCQQYHSWPLLTFGCGTKVEIKSGGGGSEVQLVESGGGLVQPGGSLKLSCAASGFTFNKYAINWVRQAPGKGLEWVARIRSKYNNYATYYADAVKDRFTISRDDSKNTVYLQMNNLKTEDTAVYYCARAGNFGSSYISYWAYWGQGTLVTVSSGGGGSGGGGSGGGGSQTVVTQEPSLTVSPGGTVTIT[in this place about 80 residues]FGSGTKLTVLGGGG[in this place human IgG1 Fc with R292C N297G V302C (EU numbers)]GGGGSGGGGSGGGGSGGGGSGGGGSGGGGS[in this place human IgG1 Fc with R292C N297G V302C (EU numbers)]
notes: Single chain: anti-CD20 scFv, anti-CD22 scFv, anti-CD3 scFv (I2E), scFc; also called 35181-1
EC50, 48-hour FACS based cytotoxicity assay, Oci-Ly 1 CD22 k.o. #A1 [6]: 0.00023 nM | EC50, 48-hour FACS based cytotoxicity assay, Oci-Ly 1 CD20 k.o. #A5 [7]: 0.011 nM

Kd [1]: 2.75 nM | Kd [2]: 0.16 nM | Affinity gap Kdcy/Kdhu CD20 [3]: 1.22 | Affinity gap Kdcy/Kdhu CD22 [4]: 17.2 | Kd [5]: 0.85 nM | Kd [8]: 1.04 nM
B3: CD20 82-A3 CC × CD22 44-A8 CC × I2E × scFc (J1E) (bispecific antibody)
chain: EVQLVESGGGLVQPDRSLRLSCAASGFTFRDYAMHWVRQAPGKCLEWVSGIAWNSDSIGYADSVKGRFTISRDNAKNSLFLQMHSLRPEDTALYFCAKDTLYGSGSPRAFDIWGQGTMVTVSSGGGGSGGGGSGGGGSEIVLTQSPATLSVSPGERATLSCRASQSVNNNLAWYQQKPGQAPRLLIYGASTRATGIPARFSGSGSGTEFTLTISRLEPEDFAVYYCQQSNNWPITFGCGTRLEIKSGGGGSQVQLVQSGAEVKKPGASVKVSCKASGYTFTSYGISWVRQAPGQCLEWMGWISAYNGNAIYAQKLQGRVTMTRDTSTSTAYMELRSLRSDDTAVYYCARDPDYYGSGSYSDYWGQGTLVTVSSGGGGSGGGGSGGGGSEIVLTQSPATLSVSPGERATLSCRASQSVSSNLAWYQQKPGQAPRLLIYGASSRATGIPARFSGSGSGTEFTLTISSLQSEDFAVYYCQQYHSWPILHFGCGTKVEIKSGGGGSEVQLVESGGGLVQPGGSLKLSCAASGFTFNKYAINWVRQAPGKGLEWVARIRSKYNNYATYYADAVKDRFTISRDDSKNTVYLQMNNLKTEDTAVYYCARAGNFGSSYISYWAYWGQGTLVTVSSGGGGSGGGGSGGGGSQTVVTQEPSLTVSPGGTVTIT[in this place about 80 residues]FGSGTKLTVLGGGG[in this place human IgG1 Fc with R292C N297G V302C (EU numbers)]GGGGSGGGGSGGGGSGGGGSGGGGSGGGGS[in this place human IgG1 Fc with R292C N297G V302C (EU numbers)]
notes: as for B1
EC50, 48-hour FACS based cytotoxicity assay, Oci-Ly 1 CD22 k.o. #A1 [6]: 0.00022 nM | EC50, 48-hour FACS based cytotoxicity assay, Oci-Ly 1 CD20 k.o. #A5 [7]: 0.0055 nM

Kd [1]: 1.42 nM | Kd [2]: 0.1 nM | Affinity gap Kdcy/Kdhu CD20 [3]: 1.15 | Affinity gap Kdcy/Kdhu CD22 [4]: 14.2 | Kd [5]: 22.5 nM | Kd [8]: 25.9 nM
B4: CD20 82-G2 CC × CD22 44-A8 CC × I2E × scFc (J9A) (bispecific antibody)
chain: EVQLVESGGGLVQPGRSLRLSCAASGFTFHDYTMHWVRQAPGKCLEWVSGISWNTGTIGYADSVKGRFTISRDNAKNSLYLQMNSLRAEDTALYYCVKDAFYGGDYYYNYGMDVWGHGTTVTVSSGGGGSGGGGSGGGGSEIVLTQSPATLSVSPGERATLSCRASQSVNNNLAWYQQKPGQAPRLLIYGASTRATGIPARFSGSGSGTDFTLTISSLQSDDFAVYYCQQYNNWPLTFGCGTKVEIKSGGGGSQVQLVQSGAEVKKPGASVKVSCKASGYTFTSYGISWVRQAPGQCLEWMGWISAYNGNAIYAQKLQGRVTMTRDTSTSTAYMELRSLRSDDTAVYYCARDPDYYGSGSYSDYWGQGTLVTVSSGGGGSGGGGSGGGGSEIVLTQSPATLSVSPGERATLSCRASQSVSSNLAWYQQKPGQAPRLLIYGASSRATGIPARFSGSGSGTEFTLTISSLQSEDFAVYYCQQYHSWPILHFGCGTKVEIKSGGGGSEVQLVESGGGLVQPGGSLKLSCAASGFTFNKYAINWVRQAPGKGLEWVARIRSKYNNYATYYADAVKDRFTISRDDSKNTVYLQMNNLKTEDTAVYYCARAGNFGSSYISYWAYWGQGTLVTVSSGGGGSGGGGSGGGGSQTVVTQEPSLTVSPGGTVTIT[in this place about 80 residues]FGSGTKLTVLGGGG[in this place human IgG1 Fc with R292C N297G V302C (EU numbers)]GGGGSGGGGSGGGGSGGGGSGGGGSGGGGS[in this place human IgG1 Fc with R292C N297G V302C (EU numbers)]
notes: as for B1
EC50, 48-hour FACS based cytotoxicity assay, Oci-Ly 1 CD22 k.o. #A1 [6]: 0.0183 nM | EC50, 48-hour FACS based cytotoxicity assay, Oci-Ly 1 CD20 k.o. #A5 [7]: 0.00927 nM
